The record followed here is the supplement of paper PMC10369915.

This is one part of the list. Rule as the data show it: active = 3.2 or more and inactive = the rest. Only a few entries rise above the background.
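Also: displayed peptides selected on beads carrying the immobilized SH2 domain, with library peptides lacking any tyrosine serving as negative controls.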

For the first assay, the target named is SHP2 C-SH2 domain E139D. The experiment in a line: enrichment score (SH2-bound / input frequency) (ratio); bacterial display of known human phosphotyrosine sites (pTyr-Var adds point mutants) read by sequencing; higher = stronger binding; tyrosines were phosphorylated by kinases first. The following applies: peptide library: Human pTyr.
As for NVTTCNDYVALVHPD [IF6_HUMAN_113], the enrichment score is inactive: 0.988.
The same measure, in the same setting: with FGMTRDVYETDYYRK [INSRR_HUMAN_1141] the figure was inactive: 0.848.
For DLPTHDGYLPSNIDD [I12R2_HUMAN_800], the enrichment score is inactive: 0.793.
Turning to VIAGNPAYRSFSNSL [IL4RA_HUMAN_497], the enrichment score is inactive: 0.768.
Still for that read-out and setting: the result for SLGFKRSYEEHIPYT [INSR_HUMAN_1355] reads inactive: 0.615; that for GGGMPYQYPALTPEQ [ALDOA_HUMAN_5], inactive: 0.577; that for VSAPTSGYQEFVHAV [IL4RA_HUMAN_575], inactive: 0.867.
With THFPQFSYSASIREG [AKT2_HUMAN_475], the enrichment score was inactive: 1.19.
Turning to ACQVAFTYDPASEED [IL2RB_HUMAN_384_YA], the enrichment score was inactive: 1.17.
Same read-out and setting: the result for EIEACQVYFTADPAS [IL2RB_HUMAN_381_YA] reads inactive: 1.23; that for TTALSMSYNLLGFLQ [IFNB_HUMAN_24], inactive: 1.15; that for DDITQEEYGEFAKSL [HSP90AB1_HUMAN_301_YA], inactive: 1.11.
For the molecule FGMTRDIYETDYYRK [INSR_HUMAN_1185], the enrichment score was inactive: 0.94.
ELLEQQKYTVTVDYW [IKBKB_HUMAN_199]: the enrichment score was inactive: 1.57.
For the molecule DVFPCSVYVPDEWEV [INSR_HUMAN_1011], the enrichment score was inactive: 1.3.
The same measure, in the same setting: with KENQKHIYAITGETK [HS90A_HUMAN_492_YA] the figure was inactive: 1.32.
Take GLENGLNYIDLDLVK [IRS1_HUMAN_1179]: the enrichment score is inactive: 0.914.
As to EKATGRYYAMKILRK [AKT2_HUMAN_178], the enrichment score is inactive: 1.8.

The target in a further assay is SHP2 C-SH2 domain wild-type. The assay is described as above. To be noted: peptide library: Human pTyr.
NVTTCNDYVALVHPD [IF6_HUMAN_113]: the enrichment score is inactive: 1.1.
With FGMTRDVYETDYYRK [INSRR_HUMAN_1141], the enrichment score was inactive: 0.82.
Consider DLPTHDGYLPSNIDD [I12R2_HUMAN_800], for which the enrichment score was inactive: 0.701.
Consider VIAGNPAYRSFSNSL [IL4RA_HUMAN_497], for which the enrichment score was inactive: 0.661.
The same measure, in the same setting: with SLGFKRSYEEHIPYT [INSR_HUMAN_1355] the figure was inactive: 0.646.
GGGMPYQYPALTPEQ [ALDOA_HUMAN_5]: the enrichment score is inactive: 0.531.
VSAPTSGYQEFVHAV [IL4RA_HUMAN_575]: the enrichment score is inactive: 0.759.
As for THFPQFSYSASIREG [AKT2_HUMAN_475], the enrichment score is inactive: 1.08.
Consider ACQVAFTYDPASEED [IL2RB_HUMAN_384_YA], for which the enrichment score is inactive: 1.01.
As for EIEACQVYFTADPAS [IL2RB_HUMAN_381_YA], the enrichment score was inactive: 1.26.
With TTALSMSYNLLGFLQ [IFNB_HUMAN_24], the enrichment score is inactive: 1.12.
As for DDITQEEYGEFAKSL [HSP90AB1_HUMAN_301_YA], the enrichment score is inactive: 1.02.
As to FGMTRDIYETDYYRK [INSR_HUMAN_1185], the enrichment score was inactive: 0.762.
Turning to ELLEQQKYTVTVDYW [IKBKB_HUMAN_199], the enrichment score was inactive: 1.38.
DVFPCSVYVPDEWEV [INSR_HUMAN_1011]: the enrichment score was inactive: 1.14.
KENQKHIYAITGETK [HS90A_HUMAN_492_YA]: the enrichment score is inactive: 1.3.
In the case of GLENGLNYIDLDLVK [IRS1_HUMAN_1179], the enrichment score is inactive: 0.656.
Still for that read-out and setting: the result for EKATGRYYAMKILRK [AKT2_HUMAN_178] reads inactive: 1.92.

The target of another assay is SHP2 N-SH2 domain L43F. The assay is described as above. The following applies: peptide library: Human pTyr.
As for NVTTCNDYVALVHPD [IF6_HUMAN_113], the enrichment score was inactive: 0.957.
On to FGMTRDVYETDYYRK [INSRR_HUMAN_1141], for which the enrichment score was inactive: 0.752.
On to DLPTHDGYLPSNIDD [I12R2_HUMAN_800], for which the enrichment score was inactive: 0.815.
For the molecule VIAGNPAYRSFSNSL [IL4RA_HUMAN_497], the enrichment score is inactive: 0.682.
SLGFKRSYEEHIPYT [INSR_HUMAN_1355]: the enrichment score was inactive: 0.745.
The same measure, in the same setting: with GGGMPYQYPALTPEQ [ALDOA_HUMAN_5] the figure was inactive: 0.552; with VSAPTSGYQEFVHAV [IL4RA_HUMAN_575], inactive: 0.659; with THFPQFSYSASIREG [AKT2_HUMAN_475], inactive: 1.12.
In the case of ACQVAFTYDPASEED [IL2RB_HUMAN_384_YA], the enrichment score was inactive: 1.16.
On to EIEACQVYFTADPAS [IL2RB_HUMAN_381_YA], for which the enrichment score was inactive: 0.884.
As for TTALSMSYNLLGFLQ [IFNB_HUMAN_24], the enrichment score is inactive: 1.1.
For DDITQEEYGEFAKSL [HSP90AB1_HUMAN_301_YA], the enrichment score is inactive: 1.04.
With FGMTRDIYETDYYRK [INSR_HUMAN_1185], the enrichment score is inactive: 0.555.
As to ELLEQQKYTVTVDYW [IKBKB_HUMAN_199], the enrichment score was inactive: 1.54.
For the molecule DVFPCSVYVPDEWEV [INSR_HUMAN_1011], the enrichment score is inactive: 1.4.
For the molecule KENQKHIYAITGETK [HS90A_HUMAN_492_YA], the enrichment score was inactive: 1.13.
Take GLENGLNYIDLDLVK [IRS1_HUMAN_1179]: the enrichment score was active: 5.83.
Same read-out and setting: the result for EKATGRYYAMKILRK [AKT2_HUMAN_178] reads inactive: 2.03.

A further assay addresses SHP2 N-SH2 domain T42A. The assay is described as above. To be noted: peptide library: Human pTyr.
With NVTTCNDYVALVHPD [IF6_HUMAN_113], the enrichment score is inactive: 1.17.
Still for that read-out and setting: with FGMTRDVYETDYYRK [INSRR_HUMAN_1141] the figure was inactive: 0.78; with DLPTHDGYLPSNIDD [I12R2_HUMAN_800], inactive: 0.666; with VIAGNPAYRSFSNSL [IL4RA_HUMAN_497], inactive: 0.69.
For the molecule SLGFKRSYEEHIPYT [INSR_HUMAN_1355], the enrichment score was inactive: 0.669.
With GGGMPYQYPALTPEQ [ALDOA_HUMAN_5], the enrichment score is inactive: 0.475.
The same measure, in the same setting: with VSAPTSGYQEFVHAV [IL4RA_HUMAN_575] the figure was inactive: 0.617; with THFPQFSYSASIREG [AKT2_HUMAN_475], inactive: 1.35; with ACQVAFTYDPASEED [IL2RB_HUMAN_384_YA], inactive: 1.09.
Same read-out and setting: the result for EIEACQVYFTADPAS [IL2RB_HUMAN_381_YA] reads inactive: 1.19.
As to TTALSMSYNLLGFLQ [IFNB_HUMAN_24], the enrichment score was inactive: 1.3.
As for DDITQEEYGEFAKSL [HSP90AB1_HUMAN_301_YA], the enrichment score is inactive: 1.08.
As for FGMTRDIYETDYYRK [INSR_HUMAN_1185], the enrichment score was inactive: 0.888.
On to ELLEQQKYTVTVDYW [IKBKB_HUMAN_199], for which the enrichment score is inactive: 1.35.
Consider DVFPCSVYVPDEWEV [INSR_HUMAN_1011], for which the enrichment score is inactive: 1.25.
Take KENQKHIYAITGETK [HS90A_HUMAN_492_YA]: the enrichment score was inactive: 1.21.
On to GLENGLNYIDLDLVK [IRS1_HUMAN_1179], for which the enrichment score was active: 4.02.
With EKATGRYYAMKILRK [AKT2_HUMAN_178], the enrichment score is inactive: 1.61.

In another assay the target is SHP2 N-SH2 domain T52S. The assay is described as above. The following applies: peptide library: Human pTyr.
NVTTCNDYVALVHPD [IF6_HUMAN_113]: the enrichment score was inactive: 1.2.
Turning to FGMTRDVYETDYYRK [INSRR_HUMAN_1141], the enrichment score was inactive: 0.759.
The same measure, in the same setting: the result for DLPTHDGYLPSNIDD [I12R2_HUMAN_800] reads inactive: 0.747; that for VIAGNPAYRSFSNSL [IL4RA_HUMAN_497], inactive: 0.878; that for SLGFKRSYEEHIPYT [INSR_HUMAN_1355], inactive: 0.617.
GGGMPYQYPALTPEQ [ALDOA_HUMAN_5]: the enrichment score was inactive: 0.591.
Regarding VSAPTSGYQEFVHAV [IL4RA_HUMAN_575], the enrichment score is inactive: 0.845.
Still for that read-out and setting: with THFPQFSYSASIREG [AKT2_HUMAN_475] the figure was inactive: 0.889; with ACQVAFTYDPASEED [IL2RB_HUMAN_384_YA], inactive: 1.32; with EIEACQVYFTADPAS [IL2RB_HUMAN_381_YA], inactive: 1.35.
TTALSMSYNLLGFLQ [IFNB_HUMAN_24]: the enrichment score was inactive: 1.59.
Turning to DDITQEEYGEFAKSL [HSP90AB1_HUMAN_301_YA], the enrichment score is inactive: 1.16.
With FGMTRDIYETDYYRK [INSR_HUMAN_1185], the enrichment score is inactive: 0.795.
As to ELLEQQKYTVTVDYW [IKBKB_HUMAN_199], the enrichment score was inactive: 1.54.
Same read-out and setting: the result for DVFPCSVYVPDEWEV [INSR_HUMAN_1011] reads inactive: 1.38; that for KENQKHIYAITGETK [HS90A_HUMAN_492_YA], inactive: 1.07.
As for GLENGLNYIDLDLVK [IRS1_HUMAN_1179], the enrichment score was active: 3.82.
The same measure, in the same setting: with EKATGRYYAMKILRK [AKT2_HUMAN_178] the figure was inactive: 1.71.

For the next assay, the target named is SHP2 N-SH2 domain wild-type. The description is as above. The following applies: peptide library: Human pTyr.
As to NVTTCNDYVALVHPD [IF6_HUMAN_113], the enrichment score is inactive: 1.08.
On to FGMTRDVYETDYYRK [INSRR_HUMAN_1141], for which the enrichment score was inactive: 0.877.
As for DLPTHDGYLPSNIDD [I12R2_HUMAN_800], the enrichment score is inactive: 1.05.
On the same count and under the same terms, the result for VIAGNPAYRSFSNSL [IL4RA_HUMAN_497] reads inactive: 0.753.
As for SLGFKRSYEEHIPYT [INSR_HUMAN_1355], the enrichment score is inactive: 0.898.
For GGGMPYQYPALTPEQ [ALDOA_HUMAN_5], the enrichment score is inactive: 0.574.
Turning to VSAPTSGYQEFVHAV [IL4RA_HUMAN_575], the enrichment score was inactive: 0.602.
Regarding THFPQFSYSASIREG [AKT2_HUMAN_475], the enrichment score was inactive: 1.18.
ACQVAFTYDPASEED [IL2RB_HUMAN_384_YA]: the enrichment score is active: 3.82.
Regarding EIEACQVYFTADPAS [IL2RB_HUMAN_381_YA], the enrichment score was inactive: 1.31.
For the molecule TTALSMSYNLLGFLQ [IFNB_HUMAN_24], the enrichment score is inactive: 1.59.
For DDITQEEYGEFAKSL [HSP90AB1_HUMAN_301_YA], the enrichment score was inactive: 1.53.
As for FGMTRDIYETDYYRK [INSR_HUMAN_1185], the enrichment score was inactive: 1.08.
Still for that read-out and setting: with ELLEQQKYTVTVDYW [IKBKB_HUMAN_199] the figure was inactive: 1.53; with DVFPCSVYVPDEWEV [INSR_HUMAN_1011], inactive: 1.37; with KENQKHIYAITGETK [HS90A_HUMAN_492_YA], inactive: 1.68.
With GLENGLNYIDLDLVK [IRS1_HUMAN_1179], the enrichment score was inactive: 1.82.
Take EKATGRYYAMKILRK [AKT2_HUMAN_178]: the enrichment score is inactive: 2.25.
